Tested on: obese type 2 diabetic patients younger than 50 and not adequately controlled with metformin
Settings: human, in vivo

N[C@@H](CC(=O)N1CCn2c(nnc2C(F)(F)F)C1)Cc1cc(F)c(F)cc1F [sitagliptin]
% of patients with TEAE: Abdominal distension: 0.6%
% of patients with TEAE: Abdominal pain: 2.5%
% of patients with TEAE: Abdominal pain upper: 3.7%
% of patients with TEAE: Alanine aminotransferase increased: 1.2%
% of patients with TEAE: Anaemia: 1.2%
% of patients with TEAE: Anxiety: 1.9%
% of patients with TEAE: Any class: 60.9%
% of patients with TEAE: Arthralgia: 1.9%
% of patients with TEAE: Asthenia: 0.6%
% of patients with TEAE: BLOOD AND LYMPHATIC SYSTEM DISORDERS: 1.2%
% of patients with TEAE: Back pain: 2.5%
% of patients with TEAE: Bronchitis: 2.5%
% of patients with TEAE: CARDIAC DISORDERS: 3.1%
% of patients with TEAE: Cellulitis: 1.2%
% of patients with TEAE: Constipation: 0.6%
% of patients with TEAE: Cough: 1.2%
% of patients with TEAE: Dermatitis: 1.2%
% of patients with TEAE: Diarrhoea: 7.5%
% of patients with TEAE: Dizziness: 3.1%
% of patients with TEAE: Dyslipidaemia: 1.2%
% of patients with TEAE: Dyspepsia: 1.9%
% of patients with TEAE: Ear infection: 0.6%
% of patients with TEAE: Erectile dysfunction: 1.2%
% of patients with TEAE: Fatigue: 1.2%
% of patients with TEAE: Flatulence: 2.5%
% of patients with TEAE: GASTROINTESTINAL DISORDERS: 21.1%
% of patients with TEAE: GENERAL DISORDERS AND ADMINISTRATION SITE CONDITIONS: 6.8%
% of patients with TEAE: Gastritis: 0.6%
% of patients with TEAE: Gastroenteritis: 4.3%
% of patients with TEAE: Gout: 1.2%
% of patients with TEAE: HEPATOBILIARY DISORDERS: 0.6%
% of patients with TEAE: HLGT: Administration site reactions: 1.9%
% of patients with TEAE: HLGT: Anxiety disorders and symptoms: 1.9%
% of patients with TEAE: HLGT: Bone and joint injuries: 3.7%
% of patients with TEAE: HLGT: Cardiac arrhythmias: 1.9%
% of patients with TEAE: HLGT: Cardiac disorder signs and symptoms: 1.2%
% of patients with TEAE: HLGT: Epidermal and dermal conditions: 1.9%
% of patients with TEAE: HLGT: Gastrointestinal inflammatory conditions: 1.9%
% of patients with TEAE: HLGT: Gastrointestinal investigations: 1.2%
% of patients with TEAE: HLGT: Gastrointestinal motility and defaecation conditions: 9.3%
% of patients with TEAE: HLGT: Gastrointestinal signs and symptoms: 14.3%
% of patients with TEAE: HLGT: General system disorders NEC: 5.6%
% of patients with TEAE: HLGT: Glucose metabolism disorders (incl diabetes mellitus): 4.3%
% of patients with TEAE: HLGT: Headaches: 9.3%
% of patients with TEAE: HLGT: Hepatobiliary investigations: 1.2%
% of patients with TEAE: HLGT: Infections - pathogen unspecified: 24.2%
% of patients with TEAE: HLGT: Injuries NEC: 1.2%
% of patients with TEAE: HLGT: Joint disorders: 1.9%
% of patients with TEAE: HLGT: Lipid metabolism disorders: 1.9%
% of patients with TEAE: HLGT: Neurological disorders NEC: 4.3%
% of patients with TEAE: HLGT: Purine and pyrimidine metabolism disorders: 1.9%
% of patients with TEAE: HLGT: Respiratory disorders NEC: 3.7%
% of patients with TEAE: HLGT: Sexual dysfunctions, disturbances and gender identity disorders: 0.6%
% of patients with TEAE: HLGT: Sexual function and fertility disorders: 1.2%
% of patients with TEAE: HLGT: Sleep disorders and disturbances: 1.9%
% of patients with TEAE: HLGT: Urinary tract signs and symptoms: 2.5%
% of patients with TEAE: HLGT: Urolithiases: 0.6%
% of patients with TEAE: HLGT: Vascular hypertensive disorders: 2.5%
% of patients with TEAE: HLGT: Viral infectious disorders: 6.8%
% of patients with TEAE: HLT: Abdominal and gastrointestinal infections: 4.3%
% of patients with TEAE: HLT: Anxiety symptoms: 1.9%
% of patients with TEAE: HLT: Asthenic conditions: 2.5%
% of patients with TEAE: HLT: Cardiac signs and symptoms NEC: 1.2%
% of patients with TEAE: HLT: Coughing and associated symptoms: 1.2%
% of patients with TEAE: HLT: Dermatitis and eczema: 1.2%
% of patients with TEAE: HLT: Diarrhoea (excl infective): 7.5%
% of patients with TEAE: HLT: Digestive enzymes: 1.2%
% of patients with TEAE: HLT: Disturbances in consciousness NEC: 0.6%
% of patients with TEAE: HLT: Disturbances in initiating and maintaining sleep: 1.2%
% of patients with TEAE: HLT: Dyspeptic signs and symptoms: 1.9%
% of patients with TEAE: HLT: Ear infections: 1.2%
% of patients with TEAE: HLT: Elevated triglycerides: 0.6%
% of patients with TEAE: HLT: Erection and ejaculation conditions and disorders: 1.2%
% of patients with TEAE: HLT: Flatulence, bloating and distension: 3.1%
% of patients with TEAE: HLT: Gastritis (excl infective): 0.6%
% of patients with TEAE: HLT: Gastrointestinal atonic and hypomotility disorders NEC: 1.9%
% of patients with TEAE: HLT: Injection site reactions: 1.2%
% of patients with TEAE: HLT: Joint related signs and symptoms: 1.9%
% of patients with TEAE: HLT: Limb injuries NEC (incl traumatic amputation): 2.5%
% of patients with TEAE: HLT: Lipid metabolism and deposit disorders NEC: 1.2%
% of patients with TEAE: HLT: Liver function analyses: 1.2%
% of patients with TEAE: HLT: Lower respiratory tract and lung infections: 2.5%
% of patients with TEAE: HLT: Nausea and vomiting symptoms: 6.8%
% of patients with TEAE: HLT: Neurological signs and symptoms NEC: 3.1%
% of patients with TEAE: HLT: Oedema NEC: 2.5%
% of patients with TEAE: HLT: Purine metabolism disorders NEC: 1.9%
% of patients with TEAE: HLT: Rate and rhythm disorders NEC: 1.2%
% of patients with TEAE: HLT: Renal lithiasis: 0.6%
% of patients with TEAE: HLT: Sexual desire disorders: 0.6%
% of patients with TEAE: HLT: Upper respiratory tract infections: 14.3%
% of patients with TEAE: HLT: Upper respiratory tract signs and symptoms: 1.9%
% of patients with TEAE: HLT: Urinary abnormalities: 1.9%
% of patients with TEAE: HLT: Urinary tract infections: 1.2%
% of patients with TEAE: HLT: Vascular hypertensive disorders NEC: 2.5%
% of patients with TEAE: HLT: Viral infections NEC: 3.7%
% of patients with TEAE: Headache: 9.3%
% of patients with TEAE: Hyperglycaemia: 1.2%
% of patients with TEAE: Hypertension: 2.5%
% of patients with TEAE: Hypertriglyceridaemia: 0.6%
% of patients with TEAE: Hypoglycaemia: 3.1%
% of patients with TEAE: Injection site haematoma: 1.2%
% of patients with TEAE: Insomnia: 1.2%
% of patients with TEAE: Joint injury: 1.2%
% of patients with TEAE: Libido decreased: 0.6%
% of patients with TEAE: Limb injury: 1.2%
% of patients with TEAE: Lipase increased: 0.6%
% of patients with TEAE: METABOLISM AND NUTRITION DISORDERS: 9.3%
% of patients with TEAE: Malaise: 1.2%
% of patients with TEAE: Microalbuminuria: 1.2%
% of patients with TEAE: NERVOUS SYSTEM DISORDERS: 12.4%
% of patients with TEAE: Nasopharyngitis: 7.5%
% of patients with TEAE: Nausea: 6.8%
% of patients with TEAE: Nephrolithiasis: 0.6%
% of patients with TEAE: Oedema peripheral: 2.5%
% of patients with TEAE: Oropharyngeal pain: 1.2%
% of patients with TEAE: PSYCHIATRIC DISORDERS: 4.3%
% of patients with TEAE: Pain in extremity: 1.2%
% of patients with TEAE: Palpitations: 1.2%
% of patients with TEAE: Pharyngitis: 1.9%
% of patients with TEAE: RENAL AND URINARY DISORDERS: 4.3%
% of patients with TEAE: REPRODUCTIVE SYSTEM AND BREAST DISORDERS: 1.2%
% of patients with TEAE: RESPIRATORY, THORACIC AND MEDIASTINAL DISORDERS: 5.0%
% of patients with TEAE: Respiratory tract infection: 1.2%
% of patients with TEAE: SKIN AND SUBCUTANEOUS TISSUE DISORDERS: 2.5%
% of patients with TEAE: Sinusitis: 0.6%
% of patients with TEAE: Somnolence: 0.6%
% of patients with TEAE: Tachycardia: 1.2%
% of patients with TEAE: Upper respiratory tract infection: 3.7%
% of patients with TEAE: Urinary tract infection: 1.2%
% of patients with TEAE: VASCULAR DISORDERS: 3.1%
Number of patients with TEAE: Abdominal distension: 1
Number of patients with TEAE: Abdominal pain: 4
Number of patients with TEAE: Abdominal pain upper: 6
Number of patients with TEAE: Alanine aminotransferase increased: 2
Number of patients with TEAE: Anaemia: 2
Number of patients with TEAE: Anxiety: 3
Number of patients with TEAE: Any class: 98
Number of patients with TEAE: Arthralgia: 3
Number of patients with TEAE: Asthenia: 1
Number of patients with TEAE: BLOOD AND LYMPHATIC SYSTEM DISORDERS: 2
Number of patients with TEAE: Back pain: 4
Number of patients with TEAE: Bronchitis: 4
Number of patients with TEAE: CARDIAC DISORDERS: 5
Number of patients with TEAE: Cellulitis: 2
Number of patients with TEAE: Constipation: 1
Number of patients with TEAE: Contusion: 0
Number of patients with TEAE: Cough: 2
Number of patients with TEAE: Decreased appetite: 0
Number of patients with TEAE: Depression: 0
Number of patients with TEAE: Dermatitis: 2
Number of patients with TEAE: Diarrhoea: 12
Number of patients with TEAE: Dizziness: 5
Number of patients with TEAE: Dyslipidaemia: 2
Number of patients with TEAE: Dysmenorrhoea: 0
Number of patients with TEAE: Dyspepsia: 3
Number of patients with TEAE: EYE DISORDERS: 0
Number of patients with TEAE: Ear infection: 1
Number of patients with TEAE: Erectile dysfunction: 2
Number of patients with TEAE: Fatigue: 2
Number of patients with TEAE: Flatulence: 4
Number of patients with TEAE: GASTROINTESTINAL DISORDERS: 34
Number of patients with TEAE: GENERAL DISORDERS AND ADMINISTRATION SITE CONDITIONS: 11
Number of patients with TEAE: Gastritis: 1
Number of patients with TEAE: Gastroenteritis: 7
Number of patients with TEAE: Gout: 2
Number of patients with TEAE: HEPATOBILIARY DISORDERS: 1
Number of patients with TEAE: HLGT: Administration site reactions: 3
Number of patients with TEAE: HLGT: Anxiety disorders and symptoms: 3
Number of patients with TEAE: HLGT: Appetite and general nutritional disorders: 0
Number of patients with TEAE: HLGT: Bone and joint injuries: 6
Number of patients with TEAE: HLGT: Cardiac arrhythmias: 3
Number of patients with TEAE: HLGT: Cardiac disorder signs and symptoms: 2
Number of patients with TEAE: HLGT: Depressed mood disorders and disturbances: 0
Number of patients with TEAE: HLGT: Epidermal and dermal conditions: 3
Number of patients with TEAE: HLGT: Gastrointestinal inflammatory conditions: 3
Number of patients with TEAE: HLGT: Gastrointestinal investigations: 2
Number of patients with TEAE: HLGT: Gastrointestinal motility and defaecation conditions: 15
Number of patients with TEAE: HLGT: Gastrointestinal signs and symptoms: 23
Number of patients with TEAE: HLGT: General system disorders NEC: 9
Number of patients with TEAE: HLGT: Glucose metabolism disorders (incl diabetes mellitus): 7
Number of patients with TEAE: HLGT: Headaches: 15
Number of patients with TEAE: HLGT: Hepatic and hepatobiliary disorders: 0
Number of patients with TEAE: HLGT: Hepatobiliary investigations: 2
Number of patients with TEAE: HLGT: Infections - pathogen unspecified: 39

Source: patent publication US8735349B2, “Method for improving glucose tolerance in a diabetes type 2 patient of younger than 50 years and having postprandial plasma glucose concentration of at least 14 mmol/L” (priority 2011, dated 2014)
